In all, about 310,000 compounds went through this assay and about 14,000 (4.5%) showed an effect of 50% or more. Effects have a minus sign here. This is one part of the list.
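Note: peak tail current of the secondary pulse compared with the same well before compound.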

In the assay the target is human ether-à-go-go-related gene (hERG) potassium channel (human, UniProt Q12809). Nature of the assay: primary screen, population patch clamp on CHO cells stably expressing hERG.
human ether-à-go-go-related gene (hERG) potassium channel, sequence (Q12809 whole entry, looked up): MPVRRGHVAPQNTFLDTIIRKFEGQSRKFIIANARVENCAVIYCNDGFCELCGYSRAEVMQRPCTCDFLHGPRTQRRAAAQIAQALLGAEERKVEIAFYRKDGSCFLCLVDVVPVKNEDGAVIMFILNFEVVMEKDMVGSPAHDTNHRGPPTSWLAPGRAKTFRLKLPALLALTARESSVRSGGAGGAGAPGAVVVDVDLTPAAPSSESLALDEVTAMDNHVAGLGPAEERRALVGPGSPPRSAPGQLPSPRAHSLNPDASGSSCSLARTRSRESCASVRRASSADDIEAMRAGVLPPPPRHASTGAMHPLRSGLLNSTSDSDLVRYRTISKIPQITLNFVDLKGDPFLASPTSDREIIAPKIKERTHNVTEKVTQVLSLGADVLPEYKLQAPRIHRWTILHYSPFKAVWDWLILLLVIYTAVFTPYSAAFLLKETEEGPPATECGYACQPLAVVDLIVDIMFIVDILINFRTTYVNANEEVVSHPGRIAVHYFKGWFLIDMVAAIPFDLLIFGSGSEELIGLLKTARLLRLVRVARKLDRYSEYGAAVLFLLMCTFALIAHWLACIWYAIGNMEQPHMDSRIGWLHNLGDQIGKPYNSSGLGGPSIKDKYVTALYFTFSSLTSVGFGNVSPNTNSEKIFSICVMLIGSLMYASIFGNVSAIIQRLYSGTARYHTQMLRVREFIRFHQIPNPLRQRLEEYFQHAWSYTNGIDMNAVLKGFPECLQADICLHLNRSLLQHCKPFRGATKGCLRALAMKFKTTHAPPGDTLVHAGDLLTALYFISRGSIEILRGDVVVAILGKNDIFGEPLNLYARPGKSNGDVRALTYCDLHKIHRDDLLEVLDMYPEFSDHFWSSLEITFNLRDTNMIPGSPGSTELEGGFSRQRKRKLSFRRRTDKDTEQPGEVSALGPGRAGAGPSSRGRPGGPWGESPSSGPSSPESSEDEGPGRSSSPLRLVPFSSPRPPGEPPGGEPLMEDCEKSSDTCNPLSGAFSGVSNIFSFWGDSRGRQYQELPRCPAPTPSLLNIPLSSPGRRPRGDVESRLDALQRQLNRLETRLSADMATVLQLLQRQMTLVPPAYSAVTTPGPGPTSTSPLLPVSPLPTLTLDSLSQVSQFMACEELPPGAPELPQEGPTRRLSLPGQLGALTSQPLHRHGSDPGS
Regarding `Cc1c(NC(=O)C2CC(c3ccc(F)cc3)=NO2)c(=O)n(-c2ccccc2)n1C` (centres unmarked), the “hERG current change (%, negative = inhibition) at 10uM” value is on record as -3.93%. Regarding `Nc1c2nc(-c3ccccc3)[nH]c(=O)c2nc(=O)n1-c1ccccc1`, the “hERG current change (%, negative = inhibition) at 10uM” value is reported as -0.0595%.

As to `NS(=O)(=O)c1ccc(NC(=O)CSc2nnc(COc3ccccc3Cl)n2C2CC2)cc1`, the “hERG current change (%, negative = inhibition) at 10uM” value is on record as 6.32%. As for `CC(CC#CCN1CCOCC1)OCCC#N` (centres unmarked), the “hERG current change (%, negative = inhibition) at 10uM” value is listed as 8.96%. With `O=C(NC1CCC(O)CC1)c1ccc(NS(=O)(=O)c2cccc([N+](=O)[O-])c2)cc1` (centres unmarked), the “hERG current change (%, negative = inhibition) at 10uM” value came to 11.3%. As for `CCC1S/C(=C(\C#N)C(N)=O)N(c2ccc(F)cc2)C1=O` (centres unmarked), the figure is 7.87%; as for `O=C(c1ccc(S(=O)(=O)N2CCOCC2)cc1)N(c1ccccc1)C1C=CS(=O)(=O)C1` (centres unmarked), -15%. Take `CCc1nnc(NC(=O)c2ccc3nc(CC)c(CC)nc3c2)s1`: the “hERG current change (%, negative = inhibition) at 10uM” value is 31.4%. As to `Cc1ccc(-n2c(-c3ccc(Cl)cc3)n[nH]c2=S)c(C)c1`, the “hERG current change (%, negative = inhibition) at 10uM” value is given as 8.6%.

With `Cc1nn(CC(O)COc2ccc3c(c2)CCC3)c(C)c1Br` (centres unmarked), the “hERG current change (%, negative = inhibition) at 10uM” value was 16.2%.

As for `O=C(CSc1nc(-c2ccccc2)cs1)NCCN1C(=O)CSC1=O`, the “hERG current change (%, negative = inhibition) at 10uM” value is -2%. As to `CCCn1c(Cc2ccccc2)n[nH]c1=S`, the “hERG current change (%, negative = inhibition) at 10uM” value worked out at 18.4%. As to `CC(=O)c1ccc(NC(=O)C(C)OC(=O)c2ccc3c(c2)nc(C)n3-c2ccccc2)cc1` (centres unmarked), the “hERG current change (%, negative = inhibition) at 10uM” value is recorded as -6.6%. As to `COc1ccc(-c2coc3cc4oc(=O)cc(-c5ccccc5)c4cc23)cc1F`, the “hERG current change (%, negative = inhibition) at 10uM” value is on record as -4.78%.

Consider `COc1ccc(C(=O)N2CC3(C)CC2CC(C)(C)C3)cc1OC` (centres unmarked), for which the “hERG current change (%, negative = inhibition) at 10uM” value is -21.4%.

For the molecule `O=C(CN1CCCCCC1)Nc1cc(C(F)(F)F)ccc1Cl`, the “hERG current change (%, negative = inhibition) at 10uM” value is reported as 35.7%. With `COc1ccc([C@H]2CC(=O)C=C(c3ccc(OC)c(OC)c3)C2)cc1`, the “hERG current change (%, negative = inhibition) at 10uM” value is reported as -1.6%. For `CC[C@@H](C)[C@H](NC(=O)CCc1c(C)c2cc3c4c(oc3c(C)c2oc1=O)CCCC4)C(=O)O`, the “hERG current change (%, negative = inhibition) at 10uM” value was 2.16%. Turning to `CCCNC(=O)C(Cc1ccc(F)cc1)NC(=O)c1ccc(C#N)cc1` (centres unmarked), the “hERG current change (%, negative = inhibition) at 10uM” value is recorded as -48.3%.

`Cc1ccc(NC(=O)/C(=C\c2cccc(Br)c2)NC(=O)c2ccco2)cc1`: the “hERG current change (%, negative = inhibition) at 10uM” value is given as -12.4%. Take `CCOC(=O)CN(C)Cc1cn[nH]c1-c1ccc2cc(OC)ccc2c1`: the “hERG current change (%, negative = inhibition) at 10uM” value is on record as -5.34%. As for `COc1ccc(CCc2nnc(CCC(=O)NCc3cc(C(C)C)no3)o2)cc1`, the figure is 7.71%; as for `CCn1c(SCC(=O)Nc2ccc(NC(=O)c3ccco3)cc2)nnc1-c1cccs1`, 11.9%; as for `COc1ccc(-c2csc(NC(=O)c3ccoc3C)n2)cc1`, 22.1%.

Consider `CCN1CSC(=S)N(Cc2ccccc2)C1`, for which the “hERG current change (%, negative = inhibition) at 10uM” value was 12.2%. The same measure for `CCOc1ccc(-c2nc(C#N)c(N3CCN(CC)CC3)o2)cc1`: -47.3%. Turning to `Cc1cc([N+](=O)[O-])ccc1N1C(=O)c2ccc(C(=O)Nc3ccccc3C(=O)O)cc2C1=O`, the “hERG current change (%, negative = inhibition) at 10uM” value was 9.66%. Take `CCOCCCNC(=S)N1CCCN(c2nc3cc(C)c(C)cc3cc2C#N)CC1`: the “hERG current change (%, negative = inhibition) at 10uM” value is recorded as -36.4%. Take `COc1ccc(N2CCN(CC(=O)c3ccc(O)cc3O)CC2)cc1`: the “hERG current change (%, negative = inhibition) at 10uM” value was 11%.

Regarding `CCOC(=O)c1cnc2c(OC)cccc2c1Oc1ccccc1`, the “hERG current change (%, negative = inhibition) at 10uM” value was 3.3%. For the molecule `N/C(=N\OC(=O)C12CC3CC(CC(C3)C1)C2)c1ccccn1`, the “hERG current change (%, negative = inhibition) at 10uM” value was 2.13%. `COCCN(C(=O)c1csnn1)C(C(=O)NC1CCCC1)c1ccc(C)cc1` (centres unmarked): the “hERG current change (%, negative = inhibition) at 10uM” value is given as 3.89%. As for `O=C1CCN(Cc2ccccc2)CCN1CCOc1ccccc1`, the “hERG current change (%, negative = inhibition) at 10uM” value was -10.4%. With `Cc1cc(C)cc(C(=O)OCC(=O)NCc2cccs2)c1`, the “hERG current change (%, negative = inhibition) at 10uM” value came out at 12.1%. The same measure for `CCCCNC(=O)Oc1cc(CCl)on1`: 25.2%; for `Cc1cccc(NC(=O)CN2NS(=O)(=O)c3ccccc3C2=O)c1`: -12.3%; for `CCOC(=O)CNc1nc(OCC#N)nc(N2CCOCC2)n1`: -10.7%.

In the case of `O=C(Cn1cnc2ccccc2c1=O)c1ccc2c(c1)OCCO2`, the “hERG current change (%, negative = inhibition) at 10uM” value was 5.39%. The same measure for `Cc1ccc(C(=O)NC(NCc2ccccc2)C(Cl)(Cl)Cl)cc1` (centres unmarked): -11.3%. Regarding `COc1cc(OC)c(C(=O)NCc2ccc3c(c2)OCO3)cc1OC`, the “hERG current change (%, negative = inhibition) at 10uM” value is listed as -10.5%. For the molecule `CC1C(=O)C(C)C(c2ccc([N+](=O)[O-])cc2)NC1c1ccc([N+](=O)[O-])cc1` (centres unmarked), the “hERG current change (%, negative = inhibition) at 10uM” value is -46%. The same measure for `CCn1nc(NS(=O)(=O)c2ccccc2)c2cc3ccc(C)cc3nc21`: -3.92%; for `CCCCOc1ccc(C(=O)N/C(=C/c2cccc([N+](=O)[O-])c2)C(=O)O)cc1`: 19.5%. As for `CN1CCCN(C2C3CC4CC(C3)CC2C4)CC1` (centres unmarked), the “hERG current change (%, negative = inhibition) at 10uM” value worked out at 10.9%.

Values taken from article PMC4336329 (PLoS ONE, 2015).
